Source: the supplement of paper PMC4604168 (melanoma cell lines)
The list shows a part of the results. Many values rest on one well or one pass, so single values are uncertain.

Test system: COLO829
Assay: cell count relative to DMSO control; melanoma cells; higher = more viable cells
Details: library dose: standard library concentration; 72 h
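Also: cells treated in 1,536-well plates, then fixed and DAPI-stained, with nuclei counted from automated high-throughput microscope images.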

Row | Structure (SMILES) | cell count
1 | C#Cc1cccc(Nc2ncnc3cc(OCCOC)c(OCCOC)cc23)c1 [erlotinib] + C=CCn1c(=O)c2cnc(Nc3ccc(N4CCN(C)CC4)cc3)nc2n1-c1cccc(C(C)(C)O)n1 [MK1775] (first compound 4 µM, partner dose 0.1 µM) | 96.8%
2 | COCC[n+]1c2c(n(Cc3cnccn3)c1C)C(=O)c1ccccc1C2=O + O=C(O)c1ccc(-c2c[nH]c3ncc(-c4ccccc4)cc23)cc1C1CCCC1 [GSK650394] (first compound 0.002 µM, partner dose 0.8 µM) | 68%
3 | OCc1c[nH]c2ccccc12 [Indole-3-carbinol] + NC(=O)Nc1cc(-c2cccc(F)c2)sc1C(=O)N[C@H]1CCCNC1 [AZD7762] (first compound 4 µM, partner dose 0.1 µM) | 76.8%
4 | Clc1ccc(Nc2nnc(Cc3ccncc3)c3ccccc23)cc1 [vatalanib] + Cn1nnc2c(C(N)=O)ncn2c1=O [temozolomide] (first compound 10 µM, partner dose 10 µM) | 64.3%
5 | Nc1cccc2c1CN(C1CCC(=O)NC1=O)C2=O (stereo not given) [lenalidomide] + C[C@]1(c2nc3c(C(N)=O)cccc3[nH]2)CCCN1 [Veliparib] (first compound 5 µM, partner dose 7 µM) | 47.5%
